Assay results published in PMC6212790.
Some of the results follow. At the low end of the ranking, values are background and their order means little.

molecular target: T1, GST-Rok (full length) (UniProt O34857); assay: protein binding microarray; details: Rok is a gene silencer of Bacillus subtilis; high values mean tight binding; most listed sequences are background and not binding sites; double strand, one strand shown;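 note: rank score from −0.5 (least bound) to 0.5 (best bound)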
T1 sequence: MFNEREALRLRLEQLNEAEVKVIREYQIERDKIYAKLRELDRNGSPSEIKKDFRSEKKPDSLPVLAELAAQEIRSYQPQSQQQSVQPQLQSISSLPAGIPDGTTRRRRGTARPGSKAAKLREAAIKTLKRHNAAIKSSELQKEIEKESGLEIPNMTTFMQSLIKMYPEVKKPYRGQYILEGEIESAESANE

Sequence | binding signal [E-score]
AGTAGTTC | 0.413
ACTTGGCC | -0.163
GTTTAATA | 0.24
AGCGTGGA | -0.00696
ACTCATGG | 0.0938
ACGCGGGG | -0.207
CCTGATGC | -0.163
GCCCAAAA | -0.0303
AACAAGTG | 0.133
AAAGTATC | 0.193
TCCGTGAA | -0.0712
CACAACGC | 0.0738
CAGAGTCA | -0.0871
AGTGTGGG | -0.0592
AGGCCTTA | -0.0542
AGTCATAA | 0.0334
GTAGCAAC | 0.263
ATTCCGGA | 0.092
CAGGCAAG | -0.283
CATAGGGC | -0.0263
ATATGGTA | 0.318
CAAGCGAG | -0.275
TCACCACA | 0.0771
CGACTTCC | 0.0419
AGGATCAA | -0.132

Sequence | binding signal [E-score]
AATAAACG | 0.0748
AAGATCAG | 0.176
CTGAGAAG | -0.14
CGCCGAGA | -0.216
ACAGGTAA | 0.131
CAATAGCC | -0.0177
GGAATAGA | 0.0819
AGAAGAGA | -0.0613
CACACATG | -0.193
CAATGATA | 0.22
AGTAGGCA | 0.114
AAACCCAC | 0.00229
AACACTTA | 0.112
GCCCGCAC | -0.243
GAATTCAC | 0.025
AACCCTCC | -0.245
TACGCTGA | 0.0217
AGAAAATC | 0.215
GCGTTTCC | -0.16
CGAAGATC | -0.127
GTGTTCGA | 0.0821
CAGGCACC | -0.264
ACGGAGCC | -0.0978
CAACACAA | 0.146
GACGCGTC | 0.0647

Sequence | binding signal [E-score]
ACTCGGTA | 0.363
AAGAAGCA | 0.0687
ATACGAAC | 0.0226
CCCCCCCC | -0.417
GCCGGCCC | -0.369
ATGTGAAC | 0.125
ACTTGCCG | -0.0504
AAGCCTAA | -0.217
ATAGGCCC | -0.328
ATCCCAGC | -0.251
CTAGGCCC | -0.413
GACTCCGC | -0.184
ACCACGCG | 0.0125
GTGATTTA | 0.06
ATCAACAA | 0.0139
CGTTTTAA | 0.191
AAACAGTC | 0.0387
AACCAACA | 0.21
CGACCTAA | 0.0856
CCACGAAC | -0.124
ACGCAGTC | -0.0557
ATGCTAGC | 0.313
GTCGCACA | 0.0178
TGGTTACA | 0.0714
GGTCAACC | 0.00508

Sequence | binding signal [E-score]
CTTTTAAA | -0.0285
CCGATTGA | 0.0484
CGTTCCAG | 0.0658
CCGGCAGA | -0.0543
GGGACAAC | -0.128
AAGCCCTT | -0.204
AACTTGGT | -0.0799
ATTCCACA | 0.036
CCCTAAAG | -0.286
CCGGAGAC | -0.152
GGTTGAGA | 0.0117
CAAGTCGC | -0.116
GGGCACGA | -0.288
GTAAGCGA | -0.0804
AGTTCAAA | 0.152
ATGGATAA | 0.192
GATACGCC | -0.112
ATAACTAC | 0.316
CTAGTAGC | 0.251
GTGTCATA | 0.129
GCTCCTAA | -0.194
CCCCACAA | -0.381
CGACGGAC | -0.29
AGGCTTTC | -0.134
GTAATTAA | 0.181

Sequence | binding signal [E-score]
CCGGGAAA | -0.192
TAAAGCAA | 0.13
CGTCCAAG | -0.199
CACGCTAG | 0.104
CTATGCCA | 0.0425
CACCATGG | -0.179
GAAACAGC | -0.0415
ACCCATCA | -0.123
CTTAAGTA | 0.281
CACGTCTG | -0.0439
AATAGTAG | 0.469
ACCAGACT | -0.185
ACGTGGGG | -0.257
CAAAGGCA | -0.205
CCCACGGG | -0.366
AGTGCGTG | -0.121
TGAGTTAA | 0.172
CGGCACTA | 0.188
ATCGATGA | 0.0457
CCAGCCCG | -0.309
GGTTTTGA | -0.0831
GACCGCAC | -0.0911
GTAGGTTA | 0.224
CATTCTGA | -0.035
GGGTCTAC | -0.166

Sequence | binding signal [E-score]
AGGTGTGG | -0.0638
GTGCCAAA | -0.127
TCTGATCA | 0.123
GTTGTGAA | -0.00107
CCTGTTCA | -0.173
GTCCCATA | -0.17
CCGAGTAC | -0.167
ACGTAACT | 0.18
ACGTTTGC | -0.0457
CGCTTAAC | -0.0163
ACCTTAAA | 0.0297
ATTCTCAG | 0.0171
GCGACCCA | -0.0296
CATCGTGC | 0.0085
ATAAGTAG | 0.322
AAAACGAA | 0.0895
CAGGTCAC | -0.34
GATACGAC | 0.0541
AATAATCT | 0.226
GAACACTA | -0.038
CGCTTGGA | -0.185
GCCGATGA | -0.108
GCACGGGC | -0.182
AACTAAGA | 0.138
CATCGTCA | -0.0178

Sequence | binding signal [E-score]
ATATAGAA | 0.354
AGTGGCCG | -0.131
TACTGAGA | 0.0897
CTCCTGTC | -0.207
CGCTGCAG | -0.257
CAAGCGTC | -0.151
CTTTGTGC | -0.124
ATTCGCCG | -0.122
CGTCCTAG | -0.205
CTGCCCAA | -0.00414
AAGCGGAC | -0.039
AGTCACGA | -0.0143
ACGGTATA | 0.252
CCTGAAAC | -0.261
GATCTCCA | -0.0284
ATCCATTA | 0.209
CGTTCGTA | -0.128
CTAAGCGA | -0.133
GGCAAATA | 0.115
ATAACCGA | 0.00889
CGTGCGAG | -0.181
AACTCACG | 0.0828
